In the supplement of paper PMC10369915:
Some of the results follow. No stated cut-off is given here; in the data, active = 3.2 or more and inactive = the rest. Most of these values are background signal.

target: SHP2 C-SH2 domain E139D; assay: enrichment score (SH2-bound / input frequency) (ratio); bacterial display of known human phosphotyrosine sites (pTyr-Var adds point mutants) read by sequencing; higher = stronger binding; tyrosines were phosphorylated by kinases first; conditions: peptide library: pTyr-Var
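Further: displayed peptides selected on beads carrying the immobilized SH2 domain, with library peptides lacking any tyrosine serving as negative controls.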

Enrichment score, inactive:
FADIAYNFRHG [PAH_Y166_YF] 0.92
GQETSYIEDNC [PAH_Y24] 0.869
DVLEFYNSKKT [PAK1_Y131] 1.06
HGEAYYSEVKA [PAK5_Y182_P187A] 0.611
HGEAFYSEVKA [PAK5_Y182_P187A_YF] 1.07
HGEAFYSEVKP [PAK5_Y182_YF] 0.796
HPYNSYTYPRL [PAK5_Y316_S312P] 0.726
HPFNSYTFPRL [PAK5_Y316_S312P_YF] 1.12
LIGTPYWMAPE [PAK5_Y608_V604I] 1.34
HCYNSYTYPRL [PAK7_Y316_S312C] 1.17
HCFNSYTFPRL [PAK7_Y316_S312C_YF] 1.11
EVQKDYEHLFK [PAM16_Y77_N76D] 0.614
SILAVYSKDNY [PANK2_Y400] 1.19
SILTVYSKDNF [PANK2_Y400_A398T_YF] 0.851
SILAVYSKDIY [PANK2_Y400_N404I] 1.74
FSKDNYKRVTG [PANK2_Y405_YF] 0.512
HLATEYVFSDF [PANX1_Y10_Q5H] 1.01
HKDNNYVSMWF [PAPOLG_Y432] 0.774

target: SHP2 C-SH2 domain wild-type; assay: as above; conditions: peptide library: pTyr-Var

Enrichment score, inactive:
FADIAYNFRHG [PAH_Y166_YF] 1.01
GQETSYIEDNC [PAH_Y24] 0.589
DVLEFYNSKKT [PAK1_Y131] 1.09
HGEAYYSEVKA [PAK5_Y182_P187A] 0.704
HGEAFYSEVKA [PAK5_Y182_P187A_YF] 1.4
HGEAFYSEVKP [PAK5_Y182_YF] 0.962
HPYNSYTYPRL [PAK5_Y316_S312P] 1.29
HPFNSYTFPRL [PAK5_Y316_S312P_YF] 0.983
LIGTPYWMAPE [PAK5_Y608_V604I] 2.17
HCYNSYTYPRL [PAK7_Y316_S312C] 1.47
HCFNSYTFPRL [PAK7_Y316_S312C_YF] 1.42
EVQKDYEHLFK [PAM16_Y77_N76D] 0.594
SILAVYSKDNY [PANK2_Y400] 0.898
SILTVYSKDNF [PANK2_Y400_A398T_YF] 0.833
SILAVYSKDIY [PANK2_Y400_N404I] 1.58
FSKDNYKRVTG [PANK2_Y405_YF] 0.474
HLATEYVFSDF [PANX1_Y10_Q5H] 0.927
HKDNNYVSMWF [PAPOLG_Y432] 0.81

target: SHP2 N-SH2 domain L43F; assay: as above; conditions: peptide library: pTyr-Var

Enrichment score, inactive:
FADIAYNFRHG [PAH_Y166_YF] 0.944
GQETSYIEDNC [PAH_Y24] 0.842
DVLEFYNSKKT [PAK1_Y131] 0.914
HGEAYYSEVKA [PAK5_Y182_P187A] 0.766
HGEAFYSEVKA [PAK5_Y182_P187A_YF] 1.05
HGEAFYSEVKP [PAK5_Y182_YF] 0.746
HPYNSYTYPRL [PAK5_Y316_S312P] 0.756
HPFNSYTFPRL [PAK5_Y316_S312P_YF] 1.24
LIGTPYWMAPE [PAK5_Y608_V604I] 1.47
HCYNSYTYPRL [PAK7_Y316_S312C] 1.65
HCFNSYTFPRL [PAK7_Y316_S312C_YF] 1.2
EVQKDYEHLFK [PAM16_Y77_N76D] 0.607
SILAVYSKDNY [PANK2_Y400] 0.978
SILTVYSKDNF [PANK2_Y400_A398T_YF] 0.732
SILAVYSKDIY [PANK2_Y400_N404I] 2.15
FSKDNYKRVTG [PANK2_Y405_YF] 0.389
HLATEYVFSDF [PANX1_Y10_Q5H] 0.893
HKDNNYVSMWF [PAPOLG_Y432] 1.47

target: SHP2 N-SH2 domain T42A; assay: as above; conditions: peptide library: pTyr-Var

Enrichment score, inactive:
FADIAYNFRHG [PAH_Y166_YF] 0.865
GQETSYIEDNC [PAH_Y24] 0.711
DVLEFYNSKKT [PAK1_Y131] 0.996
HGEAYYSEVKA [PAK5_Y182_P187A] 0.703
HGEAFYSEVKA [PAK5_Y182_P187A_YF] 0.907
HGEAFYSEVKP [PAK5_Y182_YF] 0.801
HPYNSYTYPRL [PAK5_Y316_S312P] 0.827
HPFNSYTFPRL [PAK5_Y316_S312P_YF] 1.13
LIGTPYWMAPE [PAK5_Y608_V604I] 1.56
HCYNSYTYPRL [PAK7_Y316_S312C] 0.997
HCFNSYTFPRL [PAK7_Y316_S312C_YF] 1.1
EVQKDYEHLFK [PAM16_Y77_N76D] 0.514
SILAVYSKDNY [PANK2_Y400] 0.902
SILTVYSKDNF [PANK2_Y400_A398T_YF] 0.851
SILAVYSKDIY [PANK2_Y400_N404I] 1.48
FSKDNYKRVTG [PANK2_Y405_YF] 0.367
HLATEYVFSDF [PANX1_Y10_Q5H] 1.08
HKDNNYVSMWF [PAPOLG_Y432] 1.61

target: SHP2 N-SH2 domain T52S; assay: as above; conditions: peptide library: pTyr-Var

Enrichment score, inactive:
FADIAYNFRHG [PAH_Y166_YF] 0.944
GQETSYIEDNC [PAH_Y24] 0.605
DVLEFYNSKKT [PAK1_Y131] 0.966
HGEAYYSEVKA [PAK5_Y182_P187A] 0.555
HGEAFYSEVKA [PAK5_Y182_P187A_YF] 0.932
HGEAFYSEVKP [PAK5_Y182_YF] 0.59
HPYNSYTYPRL [PAK5_Y316_S312P] 0.712
HPFNSYTFPRL [PAK5_Y316_S312P_YF] 1.11
LIGTPYWMAPE [PAK5_Y608_V604I] 1.51
HCYNSYTYPRL [PAK7_Y316_S312C] 1.19
HCFNSYTFPRL [PAK7_Y316_S312C_YF] 1.06
EVQKDYEHLFK [PAM16_Y77_N76D] 0.508
SILAVYSKDNY [PANK2_Y400] 0.982
SILTVYSKDNF [PANK2_Y400_A398T_YF] 0.904
SILAVYSKDIY [PANK2_Y400_N404I] 1.75
FSKDNYKRVTG [PANK2_Y405_YF] 0.409
HLATEYVFSDF [PANX1_Y10_Q5H] 1.04
HKDNNYVSMWF [PAPOLG_Y432] 1.5

target: SHP2 N-SH2 domain wild-type; assay: as above; conditions: peptide library: pTyr-Var

Enrichment score, inactive:
FADIAYNFRHG [PAH_Y166_YF] 0.978
GQETSYIEDNC [PAH_Y24] 1.1
DVLEFYNSKKT [PAK1_Y131] 1.22
HGEAYYSEVKA [PAK5_Y182_P187A] 0.821
HGEAFYSEVKA [PAK5_Y182_P187A_YF] 1.1
HGEAFYSEVKP [PAK5_Y182_YF] 0.71
HPYNSYTYPRL [PAK5_Y316_S312P] 0.629
HPFNSYTFPRL [PAK5_Y316_S312P_YF] 0.961
LIGTPYWMAPE [PAK5_Y608_V604I] 1.24
HCYNSYTYPRL [PAK7_Y316_S312C] 1.05
HCFNSYTFPRL [PAK7_Y316_S312C_YF] 1.36
EVQKDYEHLFK [PAM16_Y77_N76D] 0.651
SILAVYSKDNY [PANK2_Y400] 1.18
SILTVYSKDNF [PANK2_Y400_A398T_YF] 0.716
SILAVYSKDIY [PANK2_Y400_N404I] 1.7
FSKDNYKRVTG [PANK2_Y405_YF] 0.441
HLATEYVFSDF [PANX1_Y10_Q5H] 0.957
HKDNNYVSMWF [PAPOLG_Y432] 0.6
